In PubChem BioAssay AID1508623 (National Center for Advancing Translational Sciences (NCATS), 2021):
The whole screen tested about 48,000 compounds, of which about 450 (0.94%) were called active. Inconclusive results (about 19%) are left out. Calls follow the shape of the dose curve; as a rule, active = well fitted inhibition curve with a large enough effect; inconclusive = small, poorly fitted or top-dose-only effect; inactive = no such curve, though single readings can be large or run the other way. This is one part of the list.

Experiment: Primary qHTS for Identification of Small Molecule Inhibitors of Huntingtin Promoter Activity; also: nearly all actives have a fitted effect of over 50% in size
Conditions: HEK293 HTT promoter firefly luciferase reporter (activity 0% = vehicle and -100% = no light), 24 h; series mostly up to 57.5 µM; activity change, negative = inhibition: at the top concentration
How it was run: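 HEK293 cells carrying firefly luciferase reporters were seeded at 2,500 per well in Opti-MEM and cultured for 24 h. They were then treated with compounds at up to 57.5 uM final for 24 h at 37 degrees C before Dual-Glo luminescence readout.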
Potency is read from the fitted curve at half-maximal effect.

SMILES	activity change, negative = inhibition	Potency
Cc1ccc(CCNC(=O)C2CC(=O)N(CCc3ccccc3)C2)cc1 (stereo unspecified)	inactive: -6.25%	
Cc1ccc(C(=O)Nc2cccc(C(F)(F)F)c2)cc1Nc1nc(-c2cccnc2)nc2c1cnn2C	inactive: -7.46%	
CCc1nn(CCCC(=O)N2CCN(c3ccc(OC)cc3)CC2)c(=O)c2cc3occc3n12	inactive: -18%	
COc1ccc(CCNC(=O)c2ccc3c(c2)c(C)c(C)n3Cc2ccccc2)c(OC)c1OC	inactive: -19.7%	
COc1ccc(NC(=O)C2CCC(CNS(=O)(=O)c3ccc4c(c3)C(C)(C)C(=O)N4C)CC2)cc1 (stereo unspecified)	inactive: -7.36%	
Cc1noc(-c2ccc(CSCCC(=O)O)cc2)c1NC(=O)OC(C)c1ccccc1Cl (stereo unspecified)	inactive: -11.5%	
Cc1cc(CC(=O)O)c(C)n1-c1ccc(Cl)cc1	inactive: -1.33%	
O=C(COc1ccccc1)Nc1ccc2nc(SCC(=O)N3CCc4ccccc43)sc2c1	inactive: -13%	
CCOc1ccc(C(=O)Nc2onc3c2CCCC3)cc1	inactive: 72.9%	
CCOC(=O)N1c2ccc(C(F)(F)F)cc2[C@@H](N(Cc2cc(C(F)(F)F)cc(C(F)(F)F)c2)C(=O)OC)C[C@H]1CC	inactive: -31.2%	
N#Cc1ccccc1Cn1c(SCC(=O)Nc2ccc(F)cc2)nc2ccccc21	inactive: -33.9%	
Cn1cnc(S(=O)(=O)N2CCC(C(=O)Nc3ccc(C#N)cc3)CC2)c1	inactive: -17.4%	
CC(=O)c1ccc(NC(=O)c2nc(-c3ccccc3)n(-c3ccccc3Cl)n2)cc1	inactive: -13.2%	
COc1ccc(CNCCCSc2nnnn2C)c(OC)c1	inactive: -4.31%	
CCc1nnc(SCc2ccc(F)cc2Cl)c2cc3sc(C)cc3n12	inactive: 2.91%	
COc1cccc(CNC(=O)CCn2c(=O)c3cccn3c3cccnc32)c1OC	inactive: 2.92%	
CCOc1ccc(CNC(=O)C2CCN(S(=O)(=O)c3ccc4c(ccn4C)c3)CC2)cc1	inactive: 0%	
Cc1nn(CC(=O)NCC(C)c2ccccc2)c(=O)c2cc3ccccc3n12 (stereo unspecified)	inactive: -4.54%	
Cc1ccc(-c2noc(-c3ccc(N4CCCCC4C)c([N+](=O)[O-])c3)n2)cc1 (stereo unspecified)	inactive: -19.9%	
CCCCn1c(=O)c2oc3ccccc3c2n(Cc2cccc(C)c2)c1=O	inactive: 4.42%	
Cc1c(C(=O)Nc2ccc(-c3nc4cc(Cl)ccc4o3)cc2)oc2ccccc12	inactive: -7.55%	
Cc1ccccc1NC(=O)CSc1cn(CC(=O)N2CCCC2)c2ccccc12	inactive: -34.5%	
Cc1c(Cl)cccc1NC(=O)c1cc2sccc2n1Cc1ccc(F)cc1	inactive: -30.1%	
COc1ccc(N(C)C(=O)c2nc(-c3cccc(F)c3)n3c2CCCCC3)c(OC)c1	inactive: -17%	

SMILES	activity change, negative = inhibition	Potency
CC1(C)O[C@@H]2C[C@@H]3[C@H]4C[C@@H](F)C5=CC(=O)C=C[C@]5(C)[C@@]4(F)[C@@H](O)C[C@]3(C)[C@]2(C(=O)CO)O1	inactive: -3.85%	
Cc1ccc(-c2cc(-c3coc4ccccc4c3=O)c3c(n2)-c2ccccc2OC3)cc1	inactive: -5.86%	
Cc1c(-c2cccc(NC(=O)Nc3ccccc3)c2)nc2ncccn12	inactive: 9.73%	
Cc1ccc(S(=O)(=O)N2CCc3cc(C(=O)NCCc4ccccc4)ccc32)cc1	inactive: -20.7%	
CCS(=O)(=O)N1CCC2(CC1)OC(=O)C(C)=C2C(=O)NCc1ccccc1C	inactive: 0.852%	
COc1cccc(Cn2c(=O)cc(C)c3c(C)nn(-c4ccc(C)cc4)c32)c1	inactive: -1.96%	
COc1ccccc1N(CC(=O)NCCSCc1ccccc1)S(C)(=O)=O	inactive: -8.53%	
CCCCc1nn2c(=O)cc(COC(=O)c3cccc(OC)c3)nc2s1	inactive: -15.8%	
COc1ccc(-c2cc(C(F)(F)F)nc(SCC(=O)NCc3ccc(OC)c(OC)c3)n2)cc1	inactive: -7.56%	
CCc1nnc2c(Nc3cccc(C(C)=O)c3)nc3ccccc3n12	inactive: 2.24%	
COc1ccc(-c2onc(C)c2C)cc1S(=O)(=O)NCc1ccco1	inactive: -15.9%	
CCc1ccc(CNC(=O)c2ccc3c(c2)nc2n3CCC(C)C2)cc1 (stereo unspecified)	inactive: -1.71%	
COc1cccc(C(=O)Nc2cccc(OCc3cc(=O)n4cc(C)ccc4n3)c2)c1	inactive: 2.65%	
CCCCc1nn2c(=O)cc(COC(=O)COc3ccc(C)cc3)nc2s1	inactive: -4.1%	
COc1ccc(C)cc1NC(=O)CN(c1ccccc1)S(=O)(=O)N(C)C	inactive: -5.05%	
COc1ccc(NC(=O)CN2C(=O)COc3ccc(S(=O)(=O)Nc4ccccc4)cc32)cc1	inactive: -5.75%	
CCOC(=O)CN1C(=O)c2ccccc2Sc2ncccc21	inactive: -18.9%	
CCC12CN3CC(C)(CN(C1)C3c1c[nH]c3ccccc13)C2=O (stereo unspecified)	inactive: -16%	
CC1=C(C(=O)Nc2ccc(C)cc2C)C(c2ccc(O)cc2)n2nnnc2N1 (stereo unspecified)	inactive: -12.4%	
COc1ccc(/C=C\c2onc(C)c2S(=O)(=O)N2CCC(C(=O)Nc3ccc(C)cc3C)CC2)cc1	inactive: -16.9%	
O=C(Nc1ccc(F)cc1Cl)n1ncc2cc(Cl)ccc21	inactive: 0.476%	
CCC(=O)N1CCc2cc(S(=O)(=O)NC(CC(C)C)C(=O)Nc3cc(C)ccc3OC)ccc21 (stereo unspecified)	inactive: -16.7%	
CCCOc1ccc(C(=O)Nc2cccc(NC(=O)c3cccc(Cl)c3)c2)cc1	inactive: -1.82% [at 11.5 µM]	
CCS(=O)(=O)c1ncc(N(Cc2ccco2)Cc2sccc2C)c(C(=O)Nc2ccc(C)cc2C)n1	inactive: -13.9%	

SMILES	activity change, negative = inhibition	Potency
O=C(COc1ccccc1-c1nnc(-c2ccccc2)o1)Nc1ccc(Br)cc1F	inactive: -13.6%	
CCCNC(=O)CCNS(=O)(=O)c1ccc2c(c1)c(=O)n(C)c(=O)n2C	inactive: -10.4%	
CCC(=O)N1CCc2cc(S(=O)(=O)NCCC(=O)Nc3ccc(C)cc3)ccc21	inactive: -19.5%	
Cc1cccc(NCc2nc3ccccc3n2CCOc2ccccc2C)c1	inactive: -27.3%	
COc1cc(C(=O)n2nc(-c3ccco3)nc2NCc2ccc(Cl)cc2)cc(OC)c1OC	inactive: 25.7%	
COc1ccc(C(=O)NCC(c2ccc(N(C)C)cc2)N2CCCC2)c(OC)c1 (stereo unspecified)	inactive: 4.05%	
Cc1cccc(-c2nc(CSc3nncn4c3cc3oc(C)cc34)c(C)o2)c1	inactive: -4.55%	
COc1ccccc1OCC(=O)Nc1nc2c(s1)CC(C)CC2 (stereo unspecified)	inactive: -23.1%	
Cc1ccc2nc(-c3ccc(Cl)cc3)cc(C(=O)OCC(=O)c3ccccc3)c2c1	inactive: -13.9%	
CC1CCC(NC(=O)C2(C)Cc3ccccc3C(=O)N2Cc2ccc(F)cc2)CC1 (stereo unspecified)	inactive: -25.7%	
CCC(Cn1nnc2ccccc2c1=O)NC(=O)Nc1ccc(C)cc1C (stereo unspecified)	inactive: -13.8%	
CCOc1ccccc1C(=O)NCc1ccc2c(c1)CCN2C(C)=O	inactive: -18.7%	
Cc1ccc(S(=O)(=O)Nc2cccc(-c3ccc(N4CCCCC4)nn3)c2)s1	inactive: 4.73%	
Cc1cccc(NC(=O)C2CCCN(S(=O)(=O)c3cccc4nonc34)C2)c1 (stereo unspecified)	inactive: -3.6%	
CCOC(=O)C(C)Sc1nnc2ccc3ccccc3n12 (stereo unspecified)	inactive: 31.3%	
Cc1ccc(NC(=O)C(=O)NCc2ccc(Cl)cc2)cc1	inactive: -17.3% [at 11.5 µM]	
COc1cc(OC)c(NC(=O)CCn2cnc3onc(-c4ccc(F)cc4)c3c2=O)cc1Cl	inactive: 0.41%	
CCOc1ccc(NC(=O)N(Cc2c[nH]c3ccccc23)C2CCCCC2)cc1	inactive: 33.1%	
Cc1oc(-c2cccc(Cl)c2)nc1CN1CCC(C(=O)NCCCN2CCN(c3cccc(Cl)c3)CC2)CC1	inactive: -11.6%	
Cc1ccc(CNCc2c(C(=O)O)n(Cc3ccccc3C)c3cc(C)ccc23)cc1	inactive: -2.88%	
CCC[C@@H]1C[C@@H](C(=O)N[C@@H]([C@H]2O[C@H](SC)[C@H](O)[C@@H](O)[C@H]2O)[C@@H](C)O)N(C)C1	inactive	
CCCCNC(=O)c1[nH]c2ccccc2c1Sc1ccc(C)cc1	inactive: -17.1%	
Cc1cc2c(=O)c(C(=O)c3ccncc3)cn(CC(=O)Nc3cccc(C)c3C)c2cc1C	inactive: -17.3%	
CC(NC(=O)CN(C)S(=O)(=O)c1ccc2c(c1)c(=O)n(C)c(=O)n2C)c1ccccc1 (stereo unspecified)	inactive: -7.03%	

SMILES	activity change, negative = inhibition	Potency
Cc1oc(-c2ccc(C(=O)NCc3ccc(N(C)C)cc3)cc2)nc1COc1ccccc1	inactive: -20.4% [at 11.5 µM]	
Cn1cc(S(=O)(=O)N2CCCCC2)cc1C(=O)N1CCN(c2ccc(F)cc2)CC1	inactive: -15.8%	
Cc1cc(=O)n(CC(=O)NCCC(C)C)c2c1c(C)nn2C	inactive: -25.9%	
Cc1ccc2c(c1)c(=O)c(C(=O)c1ccncc1)cn2CC(=O)Nc1c(C)cccc1C	inactive: -10.6%	
Cc1ccc(C)c(S(=O)(=O)c2cnc(SCC(=O)Nc3ccc(F)cc3F)[nH]c2=O)c1	inactive: -1.38%	
CCc1ccc(NC(=O)CSc2nccn2C2CCCC2)cc1	inactive: -14%	
CCN(CC)CCNC(=O)C1CCCN(c2ncnc3onc(C)c23)C1 (stereo unspecified)	inactive: 0.979%	
Cc1ccc(C)c(-c2csc(-c3c(N)c(C(=O)c4ccc5c(c4)OCO5)n4ccccc34)n2)c1	inactive: -34.4%	
COc1ccc(CCNC(=O)Cn2nc(C)n3c(cc4occc43)c2=O)cc1OC	inactive: -7.5%	
CCOC(=O)c1c(S(=O)(=O)N2CCCC(C(=O)N3CCN(c4ccc(F)cc4)CC3)C2)c(C)n(C)c1C (stereo unspecified)	inactive: -13%	
COc1ccc(CCNC(=O)Cn2ncc3c(C)n(Cc4ccccc4F)c(C)c3c2=O)cc1OC	inactive: -17.1%	
Cc1ccc2nc(N(Cc3cccnc3)C(=O)C3CCCCC3)sc2c1	inactive: -26.9%	
CCn1cc(C(=O)OCC(=O)Nc2cc(Cl)ccc2OC)c(=O)c2ccc(C)nc21	inactive: -7.05%	
COc1cc(CNCc2c(C(=O)O)c(C)n(Cc3cccc(Cl)c3)c2C)cc(OC)c1OC	inactive: 8.91%	
CCc1ccc2nc(N3CCC(C(=O)O)CC3)sc2c1		active: 10 µM
CCSc1nc2n(n1)C(c1ccc(CC)cc1)C(C(=O)Nc1ccccc1OC)=C(C)N2 (stereo unspecified)	inactive: 0%	
Cc1c(Cl)cccc1-n1c(CCC(=O)O)ccc1-c1cccs1	inactive: -8.14%	
CCc1cccc(NC(=O)CN2C(=O)CCc3cc(S(=O)(=O)N4CCOCC4)ccc32)c1	inactive: -23.4%	
Cc1ccc2oc(C(=O)Nc3nnc(CC(C)C)s3)cc(=O)c2c1	inactive: -0.729% [at 11.5 µM]	
CN1CCCN=C1/C=C/c1cccs1	inactive: -4.63%	
CCN(CC)c1cc(C)nc2nc(-c3ccc(C)cc3)nn12	inactive: -5.33%	
Cc1ccc(CN2CCSc3ccc(C(=O)Nc4ccc(F)cc4F)cc32)cc1	inactive: 10.1%	
CC12CC3CC(C)(C1)CC(N)(C3)C2	inactive	
COc1ccc(CCNC(=O)C(=O)Nc2ccc(C)c(C)c2)cc1	inactive: 14%	
